This is one part of the list.

Common to all, as to assay: glycan array binding signal (z-score within array); higher = stronger binding
What all share (conditions): glycan notation: IUPAC condensed, linker removed

Assay [1] has as its target Fuc(a1-2)Gal(b1-4)Glc6S. Summed up: (§1)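 From the Consortium for Functional Glycomics database, 3228 arrays were curated, keeping only those whose protein sequence was available. Binding is given as a within-array Z-score averaged across arrays sharing a protein sequence and across linkers. Negative Z-scores can be read as non-binding.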
For assay [2], the target named is Fuc(a1-2)Gal(b1-4)GlcNAc. A digest of the protocol:
as §1

For assay [3], the target named is Fuc(a1-2)Gal(b1-4)GlcNAc(b1-2)Man. Summed up: as §1
Assay [4] deals with Fuc(a1-2)Gal(b1-4)GlcNAc(b1-2)Man(a1-3)[Fuc(a1-2)Gal(b1-4)GlcNAc(b1-2)Man(a1-6)]Man(b1-4)GlcNAc(b1-4)GlcNAc. A digest of the protocol:
as §1

For assay [5], the target named is Fuc(a1-2)Gal(b1-4)GlcNAc(b1-2)Man(a1-3)[Fuc(a1-2)Gal(b1-4)GlcNAc(b1-2)Man(a1-6)]Man(b1-4)GlcNAc(b1-4)[Fuc(a1-6)]GlcNAc. Summed up:
as §1

In assay [6] the target is Fuc(a1-2)Gal(b1-4)GlcNAc(b1-2)[Fuc(a1-2)Gal(b1-4)GlcNAc(b1-4)]Man(a1-3)[Fuc(a1-2)Gal(b1-4)GlcNAc(b1-2)Man(a1-6)]Man(b1-4)GlcNAc(b1-4)GlcNAc. Summed up: as §1
Assay [7] has as its target Fuc(a1-2)Gal(b1-4)GlcNAc(b1-3)Gal(b1-4)GlcNAc. A digest of the protocol: as §1
For assay [8], the target named is Fuc(a1-2)Gal(b1-4)GlcNAc(b1-3)Gal(b1-4)GlcNAc(b1-2)Man(a1-3)[Fuc(a1-2)Gal(b1-4)GlcNAc(b1-3)Gal(b1-4)GlcNAc(b1-2)Man(a1-6)]Man(b1-4)GlcNAc(b1-4)GlcNAc. Summed up: as §1
Assay [9] has as its target Fuc(a1-2)Gal(b1-4)GlcNAc(b1-3)Gal(b1-4)GlcNAc(b1-3)Gal(b1-4)GlcNAc. A digest of the protocol: as §1
The target in assay [10] is Fuc(a1-2)Gal(b1-4)GlcNAc(b1-3)GalNAc. A digest of the protocol:
as §1

Assay [11] deals with Fuc(a1-2)Gal(b1-4)GlcNAc(b1-3)[Fuc(a1-2)Gal(b1-4)GlcNAc(b1-6)]GalNAc. A digest of the protocol:
as §1

Assay [12] addresses Fuc(a1-2)Gal(b1-4)GlcNAc(b1-3)[Fuc(a1-3)[Gal(b1-4)]GlcNAc(b1-6)]Gal(b1-4)Glc. A digest of the protocol:
as §1

In assay [13] the target is Fuc(a1-2)Gal(b1-4)GlcNAc(b1-6)GalNAc. Summed up: as §1
Assay [14] has as its target Fuc(a1-2)Gal(b1-4)GlcNAc6S. A digest of the protocol:
as §1

Assay [15] addresses Fuc(a1-2)Gal(b1-4)[Fuc(a1-3)]GlcNAc. Summed up:
as §1

The target of assay [16] is Fuc(a1-2)Gal(b1-4)[Fuc(a1-3)]GlcNAc(b1-2)Man(a1-3)[Fuc(a1-2)Gal(b1-4)[Fuc(a1-3)]GlcNAc(b1-2)Man(a1-6)]Man(b1-4)GlcNAc(b1-4)[Fuc(a1-6)]GlcNAc. Summed up:
as §1

In assay [17] the target is Fuc(a1-2)Gal(b1-4)[Fuc(a1-3)]GlcNAc(b1-2)[Fuc(a1-2)Gal(b1-4)[Fuc(a1-3)]GlcNAc(b1-4)]Man(a1-3)[Fuc(a1-2)Gal(b1-4)[Fuc(a1-3)]GlcNAc(b1-2)Man(a1-6)]Man(b1-4)GlcNAc(b1-4)GlcNAc. A digest of the protocol: as §1
The target of assay [18] is Fuc(a1-2)Gal(b1-4)[Fuc(a1-3)]GlcNAc(b1-3)Gal(b1-4)[Fuc(a1-3)]GlcNAc. A digest of the protocol: as §1
For assay [19], the target named is Fuc(a1-2)Gal(b1-4)[Fuc(a1-3)]GlcNAc(b1-3)Gal(b1-4)[Fuc(a1-3)]GlcNAc(b1-3)Gal(b1-4)[Fuc(a1-3)]GlcNAc. A digest of the protocol: as §1
Assay [20] concerns the target Fuc(a1-2)Gal(b1-4)[Fuc(a1-3)]GlcNAc(b1-3)GalNAc. A digest of the protocol: as §1
Assay [21] has as its target Fuc(a1-2)Gal(b1-4)[Fuc(a1-3)]GlcNAc(b1-3)[Neu5Ac(a2-6)Gal(b1-4)GlcNAc(b1-6)]Gal(b1-4)Glc. A digest of the protocol: as §1
In assay [22] the target is Fuc(a1-2)Gal3S(b1-4)GlcNAc. Summed up: as §1
The target of assay [23] is Fuc(a1-2)Gal6S(b1-3)GlcNAc. A digest of the protocol: as §1

B1: PX14343H-pdi-506-26-506 (Parabacteroides distasonis) (protein)
chain: QPTGTMTTDSKLTSKESALALTNSAYLKNTVFNKMTPGWGCNTILLLEYMTGKATSENSQSNYKDFQDLLVSDRSLYIEDWWQDCYAGIANCNLALQKLGEFENLDASLVNGYMAEVKFMRALYYFYLVRIFGDVPKITTVQSELGELQVSRAPVKEIYDEIIIPDLLEAEQSDLAFSDHTGRVSMGAVKALLADVYLTYAGYPLQGGKSYYAESAKRSLEVIKSNEYTLFTDYESLRLPSQNNKGEFIYQVQFSLNKRHNESVRIFLPSRSGISAYDLEYGSLIPTKEFVESFEKGDKRTEEKQYFFTNYKGHPSKFSPGAAELEFMDLNGYYIYKFFDQVAVDNTAKSDLNWSVYRYTDVLLMYAEAQVNADGTPNQQSIDIVNQIRGRAGLAPFKQTNASAFLEEVWDQRYFDLCYENKMWFDMLRTRKIRDDKSGEYVDFIGYKTNWGKVYTETQLLFPIPLSERQANPNLTQNQGY
Turning to B1, the “glycan array binding signal (z-score)” value in [1] was -0.531; in assay [2] it was -0.482; in assay [3] it was -0.325; in assay [4], 3.11; in [5] it was -0.315; in [6] it was -0.33. Besides, the “glycan array binding signal (z-score)” value in assay [7] is -0.509; in assay [8], -0.257; in [9] it was -0.215; in assay [10], -0.373; in assay [11], -0.493; in assay [12] it was -0.332. Further, the “glycan array binding signal (z-score)” value in assay [13] was -0.164; in assay [14] it was -0.195; in assay [15], -0.418; in assay [16] it was 0.061; in [17], -0.338; in assay [18] it was -0.424. Further, the “glycan array binding signal (z-score)” value is 0.059 in [19]; 1.89 in assay [20]; -0.392 in [21]; -0.286 in assay [22]; -0.353 in assay [23].

For the origin of these results see the supplement of paper PMC8728848.
